# Assay results taken from PubChem BioAssay AID1508623 (National Center for Advancing Translational Sciences (NCATS), 2021).
# The campaign covered roughly 48,000 compounds. About 450 (0.94%) were called active. About 19% were inconclusive and are not listed. Calls come from the whole dose curve; as a rule, active = well fitted inhibition curve with a large enough effect; inconclusive = small, poorly fitted or top-dose-only effect; inactive = no such curve, though single readings can be large or run the other way. This is one part of the list.
# Assay: Primary qHTS for Identification of Small Molecule Inhibitors of Huntingtin Promoter Activity; note: nearly all actives have a fitted effect of over 50% in size
# Conditions: HEK293 HTT promoter firefly luciferase reporter (activity 0% = vehicle and -100% = no light), 24 h; series mostly up to 57.5 µM; activity change, negative = inhibition: at the top concentration
# Method in brief: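 Luminescence was read after Dual-Glo reagent and a 10 min room-temperature incubation. Values were normalized to vehicle (0% activity) and zero RLU (-100% activity). Reporter HEK293 cells had been exposed to compounds (up to 57.5 uM final) for 24 h.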
# Potency is the fitted concentration of half-maximal effect.
SMILES,"activity change, negative = inhibition",Potency
COc1ccc(CCNC(=O)CCCn2c(=O)c3ccccc3n(Cc3ccc(C)cc3)c2=O)cc1OC,inactive: -4.86%,
Cc1ccc2ncc(C(=O)NCCc3ccc(S(N)(=O)=O)cc3)c(=O)n2c1,inactive: -0.892%,
Cc1ccc(CCNC(=O)c2cc3c(=O)oc4ccccc4c3s2)cc1,inactive: -3.74%,
Cc1nn2c(C)c(C(=O)N3CCN(c4ccccc4)CC3)cnc2c1-c1ccccc1,inactive: -18.9%,
COc1ccccc1OCCn1c(COc2cc(C)ccc2C)nc2ccccc21,inactive: 1.44%,
COc1cccc(CNC(=O)CNS(=O)(=O)c2ccc3nc(C)sc3c2)c1,inactive: -3.9%,
COc1cc(NC(=O)CSc2nc3ccccc3nc2Cc2ccccc2OC)cc(OC)c1,inactive: -3.38%,
O=C(c1ccc(Cl)cc1)N(Cc1ccco1)Cc1ccco1,inactive: -21.9%,
COc1cc(OC)cc(C(=O)Nc2ccc3oc(-c4ccccc4C)nc3c2)c1,inactive: 5.29%,
CCC(=O)Nc1ccc(C)cc1-c1nc2ccccc2n(CC(=O)Nc2ccccc2Cl)c1=O,inactive: -9.62%,
COc1ccc(NC(=O)Cn2c(=O)n(CC3CCCO3)c(=O)c3ccccc32)c(OC)c1 (stereo not given),inactive: -4.69%,
CCN(CC)S(=O)(=O)c1nnc(NC(=O)c2ccccc2Cl)s1,inactive: -3.24%,
CC(C)CNc1nc(NC(C)(C)C)nc(Oc2ccc(=O)n(-c3ccccc3)n2)n1,inactive: -27.9%,
Cc1ccc(NC(=O)c2oc3ccc(S(=O)(=O)N4CCCCC4)cc3c2C)cc1C,inactive: -24.2%,
COc1ccc2c(c1)c1c(c(=O)n(CCc3ccccc3)c(=O)n1Cc1ccccc1)n2C,inactive: -9.96%,
Cc1ccc(C)c2sc(NC(=O)c3ccc(S(=O)(=O)N4CCCC4)cc3)nc12,inactive: -28.6%,
CCOc1ccc(CNC(=O)c2ccc3c(c2)nc2n3CCOC2)cc1,inactive: 30.4%,
CC(=O)N1CCOc2cc(S(=O)(=O)NCc3ccc(C)cc3)c(C)cc21,inactive: -5.36%,
COc1ccc(N(C(=O)c2ccccc2F)S(=O)(=O)c2ccc3c(c2)n(C)c(=O)n3C)cc1,inactive: 0%,
Cc1c(CNCc2ccc(OC(C)C)cc2)c(C(=O)O)c(C)n1Cc1ccc(Cl)cc1,inactive: 17.9%,

SMILES,"activity change, negative = inhibition",Potency
CCN1CCN(CCCNC(=O)c2cc3c(=O)n(CC)c4ccccc4c3s2)CC1,inactive: 7.09%,
COc1ccc(-c2cc(C(F)(F)F)nc(SCC(=O)N(C)Cc3ccccc3)n2)cc1OC,inactive: -20.3%,
COc1cc(O)ccc1C1CC(=O)Nc2c1c(=O)nc(SCc1ccccc1C)n2C (stereo not given),inactive: -16.5%,
COc1ccc(CNc2oc(-c3ccc(COc4ccc(Cl)cc4)o3)nc2C#N)cc1,,active: 22.4 µM
COc1ccc(CNC(=O)c2c(Nc3ccc(OC)cc3OC)sc(C(=O)c3ccc(Cl)cc3)c2N)cc1,inactive: -29.8%,
CCOC(=O)CSc1nc2sc3c(c2c(=O)n1Cc1ccccc1)CCC(C(C)(C)C)C3 (stereo not given),inactive: -11.7%,
CC(C)OCCCNC(=O)CCCn1c(=O)[nH]c2ccsc2c1=O,inactive: 0.175%,
Cc1ccc(CNC(=O)C2CCC(CNS(=O)(=O)c3ccc4c(c3)CCCC(=O)N4)CC2)cc1 (stereo not given),inactive: -5.73%,
CCOc1ccc(CNC(=O)c2cc(=O)[nH]c3ccc(S(=O)(=O)N4CCCCC4)cc23)cc1,inactive: 7.7%,
Cc1cc(C)cc(Nc2cc(C(=O)NCCCN(Cc3ccccc3)C(C)C)c3ccccc3n2)c1,inactive: -18.5%,
COc1ccc(CN(C(=O)c2cc3ccccc3oc2=O)C2CCS(=O)(=O)C2)cc1 (stereo not given),inactive: 8.42%,
Cc1cccc(C)c1OCCSc1nc2ccccc2n1CC(=O)O,inactive: 6.56%,
COc1ccc(N2CCN(S(=O)(=O)c3csc(C(N)=O)c3)CC2)cc1,inactive: -21.9%,
CCN(Cc1ccccc1)C(=O)Cn1c(=O)n(-c2ccc(F)c(Cl)c2)c(=O)c2sc3ccccc3c21,inactive: -7.86%,
O=C(Nc1cccc(-c2nc3ccccc3o2)c1)c1cc([N+](=O)[O-])ccc1N1CCOCC1,inactive: -28.1%,
COc1ccc(-c2nc3c4cnn(-c5ccccc5F)c4ncn3n2)cc1,inactive: 11%,
COC(=O)CC1Oc2ccc(F)cc2-n2cc(-c3ccc(Cl)cc3)nc21 (stereo not given),inactive: -8.53%,
CCOC(=O)c1ccc(NC(=O)CCS(=O)(=O)c2ccc(C)cc2)cc1,inactive: -25.8%,
Cc1cccc(-c2nc(CCNC(=O)c3ccco3)cs2)c1,inactive: -19%,
Cc1ccc(-n2nc(C)c3c(C(=O)NCc4ccc(F)cc4)cc(C)nc32)cc1,inactive: -18%,

SMILES,"activity change, negative = inhibition",Potency
Cc1cccc(N2CC(C)Cn3c2nc2c3c(=O)n(CC(=O)O)c(=O)n2C)c1 (stereo not given),inactive: -4.8%,
CCc1cccc(NC(=O)CCc2nc3cccnc3n2-c2ccccc2)c1,inactive: -15.2%,
CCOc1cc(CNC(=O)c2ccc3c(c2)N(C)C(=O)C2CCCCN32)cc(OCC)c1OCC (stereo not given),inactive: 0%,
O=C(Nc1ccc(F)cc1F)c1cc2c(=O)n3ccccc3nc2s1,inactive: -6.36%,
CCOC(=O)N1CCc2c(sc(NCc3ccc(N(C)C)cc3)c2C(=O)Nc2ccc(OC)cc2)C1,inactive: -29.2%,
CC1CCc2c(sc(NC(=O)c3ccc(Cl)cc3Cl)c2C#N)C1 (stereo not given),inactive: -3.26%,
COc1ccc(NC(=O)CCc2c(C)nc3c(c2C)c(=O)n(C)c(=O)n3C)cc1OC,inactive: -6.21%,
O=c1c2sc3ccccc3c2n(Cc2cccc(C(F)(F)F)c2)c(=O)n1Cc1ccccc1,inactive: -20.9%,
COc1ccc(NC(=O)CSc2nc(-c3cccs3)cc(C(F)(F)F)c2C#N)cc1,inactive: -4.84%,
O=C(CN1C(=O)C2(CCCC2)NC[C@H]1c1cc(F)cc(F)c1)Nc1ccc2c(c1)C[C@@]1(C2)C(=O)Nc2ncccc21,inactive: -1.24%,
CCN(CC)C(=O)CSc1nc2cc3c(cc2c(=O)n1CCCCCC(=O)NCCc1ccc(OC)c(OC)c1)OCO3,inactive: -18.5%,
CCOc1ccc(NC(=O)c2c(NCc3sccc3C)sc3c2CCCCC3)cc1,inactive: -21.7%,
COc1ccc(CNC(=O)c2ccc3c(c2)N(Cc2ccccc2F)C(=O)c2ccccc2S3(=O)=O)cc1,inactive: -11.7%,
COCCNC(=O)CCc1c(C)nc2c(c(C)nn2-c2ccc(C)cc2)c1C,inactive: -7.53%,
Cc1cc(F)ccc1NC(=O)CN(C)S(=O)(=O)c1ccc(C(=O)N2CCOCC2)s1,inactive: -21.9%,
N#Cc1c(C(F)(F)F)cc(-c2cccs2)nc1SCC(=O)Nc1ccc(F)cc1,inactive: -23.5%,
CCc1ccccc1NC(=O)CSC1=Nc2ccccc2C2=NC(Cc3ccccc3)C(=O)N12 (stereo not given),inactive: -29.2%,
O=C(COc1ccc([N+](=O)[O-])cc1)Nc1cccc2cccnc12,inactive: 8.39%,
COc1ccc(OCc2ccc(-c3nc(C#N)c(N4CCN(c5cccc(Cl)c5)CC4)o3)o2)cc1,inactive: 0.164%,
O=c1[nH]c2ccccc2c(=O)n1CCCl,inactive: 10.4%,
